# Results as given in paper PMC4336329 (PLoS ONE, 2015).
# In all, about 310,000 compounds went through this assay and about 2,200 (0.71%) showed an effect of 50% or more. The effect is printed as a negative number. The list shows a part of the results.
# Target: human ether-à-go-go-related gene (hERG) potassium channel (human, UniProt Q12809)
# Test: primary screen, population patch clamp on CHO cells stably expressing hERG
# human ether-à-go-go-related gene (hERG) potassium channel, sequence (Q12809 whole entry, looked up): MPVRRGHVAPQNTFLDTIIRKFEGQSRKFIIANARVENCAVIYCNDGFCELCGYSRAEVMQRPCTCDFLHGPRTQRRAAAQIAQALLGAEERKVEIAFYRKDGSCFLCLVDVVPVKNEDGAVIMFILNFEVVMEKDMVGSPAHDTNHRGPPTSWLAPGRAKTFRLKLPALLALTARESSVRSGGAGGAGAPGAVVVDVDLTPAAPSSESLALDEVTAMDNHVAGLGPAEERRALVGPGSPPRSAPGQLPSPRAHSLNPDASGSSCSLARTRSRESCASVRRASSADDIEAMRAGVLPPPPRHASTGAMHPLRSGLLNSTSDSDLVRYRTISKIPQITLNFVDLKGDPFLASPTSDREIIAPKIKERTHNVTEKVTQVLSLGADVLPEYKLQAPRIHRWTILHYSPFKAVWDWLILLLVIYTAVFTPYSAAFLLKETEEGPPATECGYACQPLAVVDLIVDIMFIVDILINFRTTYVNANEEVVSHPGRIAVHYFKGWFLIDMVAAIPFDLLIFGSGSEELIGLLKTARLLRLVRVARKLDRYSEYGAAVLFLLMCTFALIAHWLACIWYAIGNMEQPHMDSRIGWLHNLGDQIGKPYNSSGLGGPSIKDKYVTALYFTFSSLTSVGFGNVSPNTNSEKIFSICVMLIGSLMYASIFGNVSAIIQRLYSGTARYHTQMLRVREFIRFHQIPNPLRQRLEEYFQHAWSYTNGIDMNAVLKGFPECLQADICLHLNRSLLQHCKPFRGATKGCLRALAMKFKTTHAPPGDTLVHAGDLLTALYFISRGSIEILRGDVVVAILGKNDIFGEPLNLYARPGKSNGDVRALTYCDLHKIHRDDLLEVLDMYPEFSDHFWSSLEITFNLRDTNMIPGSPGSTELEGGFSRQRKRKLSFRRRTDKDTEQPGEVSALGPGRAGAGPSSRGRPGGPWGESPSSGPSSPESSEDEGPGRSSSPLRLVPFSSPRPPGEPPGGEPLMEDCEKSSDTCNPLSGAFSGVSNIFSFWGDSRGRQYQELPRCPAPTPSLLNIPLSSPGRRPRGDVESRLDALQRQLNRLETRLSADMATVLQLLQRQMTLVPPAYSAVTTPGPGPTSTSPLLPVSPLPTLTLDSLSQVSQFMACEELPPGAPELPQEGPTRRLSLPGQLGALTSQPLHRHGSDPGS
row,SMILES,"hERG current change (%, negative = inhibition) at 1uM"
1,Cc1ccc(C(=O)N2CCCC2)cc1S(=O)(=O)Nc1ccccc1,-8.52%
2,Cc1ncoc1C(=O)N1CCCC(C(=O)c2ccc(-c3ccccc3)c(F)c2)C1 (stereo not drawn),4.05%
3,O=C(Nc1nc2ccccc2[nH]1)c1ccc(F)c(S(=O)(=O)N2CCOCC2)c1,-14.4%
4,O=C(NCc1cccnc1)c1ccc(COc2ccccc2Br)o1,8.81%
5,Cc1ccc(N/N=C2/CCCNC2=O)cc1,16.9%
6,CCCCCc1ccc(CC(=O)O)cc1,14.8%
7,CCCCc1c(C)nc2ccc(C(=O)OCC)cc2c1Cl,15.5%
8,CCCc1nc2oc3c(=O)[nH]cnc3c2c2c1COC(C)(C)C2,12.8%
9,Cc1cc(C)cc(N(CCC#N)C(=O)COC(=O)C2=COCCO2)c1,7.44%
10,CCO[C@@H]1OC(C(=O)Nc2ccccc2)=C[C@H](C)[C@H]1CCCO,-3.86%
11,CC(=O)N1N=C(c2ccccc2)CC1c1cccc([N+](=O)[O-])c1 (stereo not drawn),11.1%
12,O=C(Nc1ccc(N=Nc2ccccc2)cc1)c1ccc(Cl)cc1Cl,6.74%
13,COC(=O)c1ccsc1NC(=O)CSc1nnnn1-c1ccccc1SC,-4.16%
14,O=C(NNC(=O)c1cc(F)c(F)cc1Cl)c1ccc(NS(=O)(=O)c2cccs2)cc1,13.9%
15,CC(Oc1cc(Cl)ccc1Cl)C(=O)N/N=C\c1ccnn1C (stereo not drawn),16.6%
16,COc1ccc(CNCc2cc(OC)ccc2OC)cc1.O=C(O)C(=O)O,-6.85%
17,O=[N+]([O-])c1ccc(CN2C=NS(=O)(=O)c3ccccc32)cc1,-2.86%
18,O=C(Cc1ccccc1)NNC1=NS(=O)(=O)c2ccccc21,10.2%
19,O=C1CCCN1c1ncc(S(=O)(=O)c2ccc([N+](=O)[O-])cc2)s1,12.1%
20,O=C(CNCc1ccccc1)Nc1ccc(Cl)cc1,10.7%
21,COC(=O)C1CCN(c2cc(=O)n(C3CCCCC3)c(=O)[nH]2)CC1,-0.0859%
22,CCc1ccc(CNCCSc2nnnn2C)cc1.Cl,6.5%
23,CC(O)Cn1cnc2c1c(=O)n(C)c(=O)n2C (stereo not drawn),-2.32%

row,SMILES,"hERG current change (%, negative = inhibition) at 1uM"
1,O=C(COC(=O)c1cccc(S(=O)(=O)N2CCc3ccccc32)c1)NC1CCS(=O)(=O)C1 (stereo not drawn),6.17%
2,CCOc1ccccc1NC(=O)CSc1nnnn1Cc1ccccc1,-15.2%
3,CCc1nnc(NC(=O)c2ccc(S(=O)(=O)N(CCOC)CCOC)cc2)o1,8.69%
4,O=C(NC1CCCC1)c1ccc(CSCc2ccccc2F)o1,-12.9%
5,COc1ccc(CCn2c(O)c(C=NCc3cccnc3)c(=O)[nH]c2=O)cc1OC,9.37%
6,CCOc1ccc(S(=O)(=O)Nc2ccc(C(=O)N(C)CC(=O)Nc3ccc(OC)cc3)cc2)cc1,17.2%
7,O=C1NC(c2ccc(Br)cc2)Nc2ccccc21 (stereo not drawn),11.2%
8,O=C(COc1ccccc1)Nc1cccc(-c2cn3cccnc3n2)c1,6.7%
9,Cc1ccccc1C(=O)Nc1ccnn1C1CCN(C(=O)C2CCOC2)CC1 (stereo not drawn),-2.54%
10,Cc1cccc(NC(=S)N(C)C)c1C,-3.81%
11,COC(=O)[C@H]1C[C@@H]1[C@H](NS(=O)(=O)c1ccc2ccccc2c1)c1ccccc1,11.4%
12,Cc1cc(C)c(S(=O)(=O)NCc2ccc3c(c2)OCO3)c(C)c1,14.5%
13,Nn1c(SCC(=O)NC(=O)NCc2ccco2)nnc1-c1ccc(OC(F)F)cc1,-18.8%
14,C#CCn1cc(/C=N/NC(=O)COc2cccc3cccnc23)c2ccccc21,15.4%
15,Cc1cc(=O)[nH]c(SCc2cccc3cccnc23)n1,10.7%
16,Cc1ccc(SCCC(=O)Nc2ccc(Br)c(C)c2)cc1,15.3%
17,COc1ccc(N=CC2=C(O)c3ccccc3C2=O)c(OC)c1,10.9%
18,O=C(Nc1ccccc1)N(C1=NCCC1)c1ccccc1,5.03%
19,O=C(CN1CCN(c2ccccc2O)CC1)Nc1ccnn1C1CCCC1,11%
20,COc1ccc(C(CNC(=O)Cn2[nH]c(=O)c3ccccc3c2=O)N2CCCC2)cc1 (stereo not drawn),10.5%
21,O=C(COC(=O)C1CCCC1)Nc1ncc(Cl)cc1Cl,10.6%
22,O=C(N/C(=C/c1ccccc1)C(=O)N1CCCCCC1)c1ccccc1,3.92%
23,COc1ccc(NC(=O)COC(=O)C2CCC2)cc1Cl,1.51%

row,SMILES,"hERG current change (%, negative = inhibition) at 1uM"
1,CC1=C(C(=O)OCC2CCCO2)C(c2ccsc2)C2=C(CCCC2=O)N1 (stereo not drawn),-0.424%
2,COCc1cc(=O)[nH]c(/N=C(\N)Nc2c(F)cccc2F)n1,5.55%
3,COc1ccc(CNC(=O)/C(C#N)=C/c2cccc(OC)c2OC)cc1,3.56%
4,O=C(CN1C(=O)c2ccccc2S1(=O)=O)NCCSC1CCCCC1,-8.06%
5,CCC(=O)N1CCc2cc(S(=O)(=O)NCCCN(CC)Cc3ccccc3)ccc21,5.37%
6,COc1ccc(OC)c(NC(=O)c2cccc3c2C(=O)N(C2CCCCC2)C3)c1,11.7%
7,O=C(CN1C(=O)CSc2ccc(S(=O)(=O)N3CCOCC3)cc21)NCc1ccc(F)cc1,3.87%
8,CN(C)NC(=S)Nc1ccc(S(=O)(=O)N2CCCCC2)cc1,5%
9,Nc1nonc1-n1nnc(C(=O)N/N=C/c2ccc(F)cc2)c1-c1cccs1,12.4%
10,Cc1cc(NC(=O)c2cccc(S(=O)(=O)N3CCOCC3)c2)no1,19.1%
11,CCc1ccc(S(=O)(=O)NC(CC(=O)O)c2ccccc2)cc1 (stereo not drawn),5.12%
12,COc1ccc(OC)c(C(c2nnnn2CCC(C)C)N2CCN(C(=O)c3ccco3)CC2)c1 (stereo not drawn),-16%
13,CCc1nc2ccccc2n1CC(=O)N1CCN(S(=O)(=O)c2cccc(C(F)(F)F)c2)CC1,8.98%
14,CC(OC(=O)Cn1cnc2c1c(=O)n(C)c(=O)n2C)C(=O)Nc1ccc(Cl)cc1 (stereo not drawn),5.77%
15,CCc1cc(C(=O)Cc2nc3ccccc3s2)c(O)cc1OCC(=O)O,11%
16,COc1ccccc1Nc1nnc(SCC(=O)NC2CC2)s1,1.23%
17,COc1ccc(NC(=O)c2cccnc2N2CCOCC2)cc1,21.2%
18,COc1ccc(NC(=O)CCNC(=O)Cn2ccc3ccccc3c2=O)cc1Cl,14.2%
19,CC1CCCN(C(=O)CSCC(=O)N=c2sc3ccccc3n2C)C1 (stereo not drawn),8.59%
20,Cc1cccc(C(=O)NCc2nnc(SCC(=O)Nc3nncs3)n2C)c1,1.07%
21,CCOc1ccc(NC(=O)c2ccc(NC(=O)c3ccc(CN4CCOCC4)cc3)cc2)cc1,2.16%
22,CCCCn1c(N)c(N(CCOC)C(=O)CSc2ccc([N+](=O)[O-])cc2)c(=O)[nH]c1=O,2.6%
23,Cc1ccc(C)c(NC(=O)c2cc(-c3cc(C)c(C)cc3O)n[nH]2)c1,9.66%

row,SMILES,"hERG current change (%, negative = inhibition) at 1uM"
1,O=C(NC1CCCCC1)C(=O)c1c[nH]c2ccccc12,0.628%
2,S=C1CCC(c2ccc(Br)cc2)=NN1c1ccccc1,-0.47%
3,O=C(Nc1ccc(Cl)cc1)N(CCCN1CCOCC1)Cc1cccs1,-55%
4,COC(=O)c1ccc(NC(=O)CSc2nnc(C)n2-c2ccccc2)cc1,7.59%
5,O=C(COc1ccccc1)Nc1ccccc1N1CCCCC1,6.54%
6,CC1=NN(Cc2ccccc2)C(=O)C1C(c1ccc(Cl)cc1)C(C#N)C#N (stereo not drawn),20.9%
7,O=C(O)c1cccc(N/N=C/c2ccc(OC(F)(F)F)cc2)c1,11.5%
8,CCCCn1c(C)cc(/C=C(\C#N)C(=O)O)c1C,-49.3%
9,CC(=O)c1ccc(N2CCN(CC(=O)N(C3CC3)C3CCS(=O)(=O)C3)CC2)c(F)c1 (stereo not drawn),-0.135%
10,O=C1c2ccccc2C(O)N1c1cccnc1 (stereo not drawn),18.8%
11,Cc1cccc(NC(=O)NNC(=O)c2nn(C)cc2Br)c1,4.25%
12,Cc1ccc(OCc2csc(N)n2)cc1,7.32%
13,COc1cc2c(ccc3cc(OC)c(OC)c(O)c32)cc1O,14.6%
14,CC(C)(C)NC(=O)c1ccc(NC(=O)CSc2ccccc2)cc1,9.49%
15,c1coc(-c2ncc[nH]2)c1,8.42%
16,CC(C)NC(=O)C(Sc1ccccc1)c1ccccc1 (stereo not drawn),16.5%
17,COc1ncnc2c1N[C@@](C)(O)c1c(F)c(F)c(F)c(F)c1S2,12.9%
18,CC(C)c1ccc(NC(=O)N2CCC(c3nc4ccccc4o3)CC2)cc1,-13.7%
19,O=C(Cc1ccccc1)c1c[nH]c(C(=O)NCc2ccncc2)c1,5.87%
20,Cc1occc1C(=O)Nc1cc(=O)n(C)c(=O)n1C,12.4%
21,CCn1c(SCC(=O)N/N=C/c2ccccc2OCC(=O)O)nnc1-c1ccc(C(C)(C)C)cc1,11.9%
